Source: patent US6465654B2, “Process for preparing 1-substituted, 2-substituted 1H-imidazo[4, 5-c]quinoline-4-amines” (3M Innovative Properties Company, priority 1991, dated 2002)

Test system: MC-26 colon tumor cells
Experiment: Inhibition of MC-26 tumors in mice, 21 day lung colony count
Details: four control mice died

In the case of `CCOCc1nc2c(N)nc3ccccc3c2n1CC(C)(C)O` [Example 99, 4-Amino-α,α-dimethyl-2-ethoxymethyl-1H-imidazo[4,5-c]quinoline-1-ethanol], the “Survival until day 21” value (oral 1 mg/Kg on days 0-4, ten mice) is reported as “One mouse from this group died prior to day 21” and the “Survival until day 21” value (oral 3 mg/Kg on days 0-4, ten mice) is reported as “All of the mice in this treatment group survived until day 21”.
